For 23 molecules, fold increase and viability results are on record in PubChem BioAssay AID1956 (SRMLSC, 2009).

Structures are written as SMILES. The list shows a part of the results. These are further read-outs of the screen, such as a control signal, another cell line or another target. No call is given for them.

This assay can be described thus: compounds boosting herpes simplex virus growth – fold increase, host cell viability (AID 1956). Further: tested in PC3 cells. The conditions noted are these: HSV replication augmentation in cells; fold increase: measured here: primary screen fold increase 10 uM, at 10 µM, stronger effect = higher value; viability: measured here: host cell viability series, at 25 µM, stronger effect = lower value.
For `Oc1[nH]c(=S)sc1/C=C1\C(c2ccccc2)=Nc2ccccc21`, the fold increase worked out at 1.78 and the viability – broadly, a read-out of living cells in per cent, often relative to untreated cells – is 83.8%.
On the same counts, the results for `CC(=O)[C@]1(O)Cc2c(O)c3c(c(O)c2[C@@H](O[C@H]2C[C@H](N)[C@H](O)[C@H](C)O2)C1)C(=O)c1ccccc1C3=O` are 5.37 and 13.8%.
In the case of `COC(=O)C1=C(C)N(c2ccc(F)cc2)/C(=C/c2ccc(O)cc2)C1=O`, the fold increase worked out at 1.98 and the viability turned out to be 96.3%.
On to `Nc1ccccc1Nc1cc(-c2ccccc2)nn1-c1cccc(Cl)c1`, for which the fold increase worked out at 1.33 and the viability is 90.6%.
With `Cc1[nH]c(=O)[nH]c(=O)c1NC(=O)c1sc2nc3c(C)cccc3cc2c1N`, the fold increase was determined as 1.33 and the viability stood at 100%.
In the case of `CCCCCCc1cc2cc(-c3nnc(-c4ccccc4OC)o3)c(=O)oc2cc1O`, the fold increase was determined as 3.26 and the viability was found to be 43.7%.
On the same counts, the results for `O=C(c1ccc(Cl)cc1)[C@@H]1[C@@H]2C(=O)N(c3ccc(Cl)cc3)C(=O)[C@@H]2C2c3ccccc3C=NN21` (some centres not stated) are 1.4 and 101%.
Regarding `COc1ccccc1NS(=O)(=O)c1cc([N+](=O)[O-])ccc1N/N=C/c1sc(N2CCOCC2)nc1-c1ccccc1`, the fold increase was found to be 2.73 and the viability is 82.5%.
As for `CC(=O)c1ccc(NC(=O)c2ccc3nc(-c4ccco4)c(-c4ccco4)nc3c2)cc1`, the fold increase was 1.28.
Turning to `Cc1ccc(-c2ccc(SCC(=O)N3CCN(c4ccccc4)CC3)nn2)cc1`, the fold increase turned out to be 1.42 and the viability worked out at 92.2%.
As to `CCC(=O)Oc1ccc2c(c1)O/C(=C\c1ccco1)C2=O`, the fold increase worked out at 4.68 and the viability was 99.8%.
Consider `CSc1nsc(/C=C/Nc2ccc(O)cc2C)c1C#N`, for which the fold increase worked out at 1.96 and the viability worked out at 84.3%.
On to `Cn1cc(Br)c(NC(=O)/C=C/C(=O)O)n1`, for which the fold increase stood at 1.38 and the viability stood at 94.8%.
`CCOC(=O)c1c(NC(=O)c2cc3n(n2)C(C(F)(F)F)CC(c2cccs2)N3)sc(C)c1C` (configuration not stated): the fold increase turned out to be 1.45 and the viability turned out to be 35.8%.
On the same counts, the results for `Cc1ccc(S(=O)(=O)Nc2cc3c(C(=O)Nc4ccccc4)c(C)oc3c3ccccc23)cc1` are 1.46 and 97.4%.
Taken in the same sequence, the figures for `COc1cc(/C=C(\C#N)c2nc3c(s2)CC(C)CC3)ccc1O` (configuration not stated) were 3.83 and 95.4%.
`Cn1c(=O)c(Nc2ccc(O)cc2)c2c3c(cccc31)C(=O)c1ccccc1-2` had a fold increase of 1.37.
As for `COc1ccc(OC)c(S(=O)(=O)Nc2ccc(O)c(Sc3ncn[nH]3)c2)c1`, the fold increase stood at 1.32 and the viability came out at 99%.
`CCOC(=O)c1c(=O)n(O)c2ccc(OC)cc2[n+]1[O-]` came in with a fold increase of 1.3.
With `N#C/C(=C\c1ccco1)C(=O)Nc1cccc2ncccc12`, the fold increase was 1.83 and the viability was determined as 96.6%.
Take `N#CC(C#N)=C1C=CC=CN1/C(=C\c1ccco1)C(=O)c1ccc(-c2ccccc2)cc1`: the fold increase is 1.52 and the viability was found to be 29.4%.
For `CCOC(=O)c1c(CC(C)C)csc1/N=C/C1C(=O)CC(C)(C)CC1=O`, the fold increase was determined as 1.44 and the viability turned out to be 97.4%.
The molecule `CCOC(=O)c1nn(-c2ccc(Cl)cc2Cl)c(=N)c(C#N)c1C` gave a fold increase of 1.42.
